Results from article PMC10668032.
This is one part of the list. At the low end of the ranking, values are background and their order means little.

Target: SIX1-Q177R homeodomain (UniProt Q15475)
Assay: universal protein binding microarray
Conditions: Universal all-10-mer PBM (8x60K, AMADID 030236), 300 nM GST-tagged protein, Alexa Fluor 488 anti-GST; buffer, salt, pH and temperature not stated; high values mean tight binding; most listed sequences are background and not binding sites; double strand, one strand shown

Row | Sequence | binding signal [E-score]
1 | CAAATGTC | -0.0522
2 | AGTCTTAG | -0.0444
3 | AGGTGAAA | -0.221
4 | CTTGAGAA | -0.22
5 | AGACCAGG | -0.121
6 | TCGCCGCA | -0.0235
7 | AACCCATC | -0.201
8 | AACTGGTA | 0.0649
9 | CCCAAAGC | -0.00129
10 | ATACGAAG | -0.187
11 | TCGGGTCA | 0.197
12 | AACTCGTA | -0.146
13 | CAGTTTAC | 0.00233
14 | CGTCTTAA | -0.0921
15 | GATGGACC | -0.026
16 | CGACGCTC | -0.206
17 | CCATAAAC | -0.0639
18 | CCAGACGC | 0.00929
19 | AATGGGCG | -0.0109
20 | GCGCACGC | 0.0592
21 | AATGGCGA | 0.0184
22 | TCTGGAAA | -0.0321

Row | Sequence | binding signal [E-score]
23 | AACCATGG | -0.14
24 | CACGTATC | 0.217
25 | AACTTCTT | -0.047
26 | CACCTGAG | 0.183
27 | ACGTTAAC | -0.0185
28 | ACATGAAT | -0.0461
29 | ACAAATAG | -0.0901
30 | ATGTCGAA | -0.0169
31 | CGGACCCA | 0.0716
32 | ACATCACG | -0.221
33 | GCTACGGA | -0.0581
34 | AACTTGCC | -0.185
35 | AGTCGTCA | -0.118
36 | GAGATCAA | -0.0475
37 | CCTTACTA | -0.0604
38 | CATCGGAC | -0.041
39 | ATTGCGCC | -0.244
40 | TCAAGTGA | -0.128
41 | AGCCGAAT | -0.0686
42 | CATCGAGA | -0.271
43 | AAATACGA | -0.00287
44 | ACACAATC | 0.178

Row | Sequence | binding signal [E-score]
45 | ACGAGCTC | -0.0655
46 | AGACGATG | -0.232
47 | AAGGTGGA | 0.102
48 | CATGGGTA | 0.143
49 | ATAGGCAT | -0.256
50 | AGGATCAT | 0.085
51 | AACAAATC | -0.0836
52 | CAACAATC | 0.00184
53 | AATACTAC | -0.117
54 | TACGGGCA | 0.0181
55 | GCCTCTAA | -0.0175
56 | AAAGGGCC | -0.0926
57 | CCGACGGC | -0.0384
58 | AGCATATG | -0.281
59 | CCTGTACA | 0.119
60 | ATCTTAAG | -0.298
61 | AATGCGCT | -0.0244
62 | GTAAGAAA | 0.155
63 | AGGCATAA | -0.0618
64 | TAATAGTA | 0.0571
65 | CCAACGGG | -0.0798
66 | AAATTAAC | -0.0677

Row | Sequence | binding signal [E-score]
67 | GTGCTTCA | 0.0606
68 | AGTGACTG | -0.124
69 | ATGCGCAG | -0.152
70 | ACCCTCAA | 0.133
71 | CGCTGGAA | -0.201
72 | AAGTTATG | -0.29
73 | CTTTCGAC | -0.171
74 | CGAGGAAG | -0.0847
75 | GTAAAGAA | -0.105
76 | CATATAAC | 0.0553
77 | AACGGCTA | -0.284
78 | CCGCAGAG | -0.0683
79 | AAACCAGC | -0.233
80 | CAGCTAAA | -0.0488
81 | GGGAAACA | 0.0993
82 | TCCAGCCA | -0.157
83 | ACGATCAA | -0.149
84 | TACGGTGA | -0.147
85 | AGTTTCCA | -0.176
86 | TCAAGCCA | -0.126
87 | CAATGGAG | 0.0176
88 | ATAACAAG | -0.00902

Row | Sequence | binding signal [E-score]
89 | AGTCCACA | -0.046
90 | AGACGTAC | -0.195
91 | ACCCGCCA | 0.152
92 | GGTTGCGA | -0.145
93 | ACGCGGAC | -0.11
94 | AACACGCC | 0.366
95 | AGCCCGCT | -0.175
96 | GGCTTCTA | -0.0766
97 | GATATATA | -0.126
98 | GTATTGGA | -0.169
99 | ACGCGGTA | 0.0643
100 | CGGCAAGC | -0.0169
101 | TGACCCAA | 0.0802
102 | ACTAATCG | 0.119
103 | CTGTTTCC | -0.155
104 | AGCGCGTA | -0.222
105 | CCGGTAAA | 0.104
106 | CGATAAAG | -0.171
107 | CCCTGGAC | 0.0864
108 | CGATCAGC | -0.257
109 | CAAGCAAA | -0.191
110 | AATACGCT | -0.115
